# Laboratory results from patent publication US20060052454A1 (priority 2004, published 2006).
# Experiments:
# [1] = test system: weak or fragile finger nails; settings: 137 participants
# anemia = settings: 96 participants, ferropenic anemia most frequent
# osteoporosis = settings: 65 females, baseline loss 5-20%; several months, 10 grams daily
# high blood cholesterol = settings: 24 cases treated exclusively with glycine
# vision problems = settings: 46 participants, 10 grams daily
# [2] = test system: impaired and fatigued voices
# [3] = test system: muscular problems, including muscular dystrophies; settings: 5-10 grams/day
# hearing problems = settings: twenty participants
# [4] = test system: physical malformations or deformities (scoliosis)
# Source text: Birth Defects: This study group consisted of twelve participants who had physical malformations or deformities in the mechanical structure of their bodies. […] At the age of two years, they were provided with a Milwaukee Brace.
# multiple sclerosis = settings: 18 participants
# infant strength = settings: mothers on glycine during all pregnancy, preliminary
# [5] = test system: infectious diseases (sore throat, flu, or cold); settings: in vivo
# arthrosis or arthritis = settings: four dogs, 1 g daily per 5-7 Kg body mass
smiles,measurement,setting,value
"NCC(=O)O [glycine, Glycine]",Condition of weak or fragile finger nails,[1],greatly improved
same,Effectiveness in anemia,anemia,effective in all these cases
same,Bone mass losses by bone densitometries,osteoporosis,reduced the degree of their bone mass losses
same,Blood cholesterol levels after treatment,high blood cholesterol,150-180 mg/100 mL
same,Vision,vision problems,some vision improvements
same,Effectiveness in asthma,asthma; 5-10 grams/day,effective at reducing or eliminating the participants' asthma problems
same,"Frequency of asthma crises, 10-15 year-olds",asthma; after 30-60 days,much less frequent
same,"Occurrence of asthma crises, 10-15 year-olds",asthma; after five months,the occurrence of asthma crises ceased
same,Impaired and fatigued voices,[2]; in vivo,significant improvements
same,Mean duration to achieve voice improvements,[2]; less for younger people,2-4 months
same,Muscular problems incl. muscular dystrophies,[3],conditions to have improved
same,Hearing problems,hearing problems,improvements in most of them
same,Tolerance of chemotherapy sessions,cancer; glycine added to chemotherapy,tolerated the chemotherapy
same,Carcinoembryonic antigen (CEA),"cancer; person, colon adenocarcinoma, 25 days glycine with continued chemotherapy, baseline 3319",154 ng/mL
same,"Tumor status, metastatic mammary carcinoma with bone metastasis","cancer; person, within two months",absolute tumoral remission
same,LDH,"cancer; same case, 25 days, baseline 821",returned to its normal value
same,Spinal deviation,"[4]; child with scoliosis, three months, 10 grams daily, baseline 55",39 degrees
same,Height grown,"[4]; child, three months, 10 grams daily",5 centimeters
same,Physical malformations or deformities,[4]; twelve participants,all of them reported improvements
same,Multiple sclerosis conditions,multiple sclerosis,reported improvements in their conditions
same,Condition of babies at birth,infant strength; some 15-20 g daily,born perfectly and noted as being especially strong
same,Babies' head raising and turning,infant strength,able to raise and to turn heads with days of their birth
same,Infectious diseases compared to prior years,[5],less infectious diseases
same,Ambulatory problems,arthrosis or arthritis,ambulatory problems disappeared totally over the next two months
same,Improvement in movement and vitality,arthrosis or arthritis,apparent two weeks after starting the treatment
